Results from PubChem BioAssay AID493208 (National Center for Advancing Translational Sciences (NCATS), 2011).
Among all 44,000 compounds or so, about 340 (0.77%) were called active. About 5% were inconclusive and are not listed. The call rests on the fitted dose curve; in most records, active means well fitted inhibition curve with a large enough effect; inconclusive means small, poorly fitted or top-dose-only effect; inactive means flat fitted curve, though single readings scatter. This is one part of the list.

test: Acumen qHTS Assay for Inhibitors of the mTORC1 Signaling Pathway in MEF (Tsc2-/-, p53-/-) Cells: Sytravon; conditions: phospho-rpS6 immunofluorescence/PI, 24 h; series mostly up to 38.3 µM; activity change, negative = inhibition: at the top concentration;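 further: plate controls were DMSO for no effect and rapamycin for full effect; nearly all actives have a fitted effect of over 50% in size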
How it was run: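 Plate MEFs (Tsc2-/-, p53-/-, empty vector) in DMEM/10% FBS; after 24 h add compound, incubate 24 h at 37 degree Celsius; fix in PFA/TX-100, block, stain phospho-rpS6 and 10 uM PI; scan at 488 nm; report % positive cells.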

Question: Which “activity change, negative = inhibition” value does the source give for `CC(C)(C)C1CCc2c(sc(NC(=O)c3ccncc3)c2C(=O)Nc2ccccc2Cl)C1` (configuration not stated) here?
Answer: inactive: -0.918%

Question: Which “activity change, negative = inhibition” value does the source give for `COc1cccc(N2CCN(Cc3nnc(-c4ccc5c(c4)OCO5)o3)CC2)c1` here?
Answer: inactive: -2.07%

Question: For `COc1ccc(N(CC(=O)NCc2ccc(C)cc2)S(=O)(=O)c2c(C)[nH]c(=O)[nH]c2=O)cc1`, which “activity change, negative = inhibition” value is on record?
Answer: inactive: -7.03%

Question: With `Cc1cc(C)cc(N2CCn3c2nc2c3c(=O)n(CCc3ccccc3)c(=O)n2C)c1` as the compound, how does the “activity change, negative = inhibition” value read?
Answer: inactive: 3.14%

Question: For `Cc1ccc(-c2nc3c4ccccc4n(Cc4cccc(Cl)c4)c(=O)n3n2)cc1`, which “activity change, negative = inhibition” value is on record?
Answer: inactive: 1.06%

Question: With `CCN1CCN(CCCNC(=O)Cn2nc(C)n3c(cc4cc(C)ccc43)c2=O)CC1` as the compound, how does the “activity change, negative = inhibition” value read?
Answer: inactive: -4.52%

Question: For `CCOC(=O)Cc1ccc(NC(=O)N2CC(CC)Oc3ccccc32)cc1` (configuration not stated), which “activity change, negative = inhibition” value is on record?
Answer: inactive: 8.66%

Question: With `CCc1ccc(S(=O)(=O)c2nnn3c2nc(N2CCCC(C)C2)c2cc(Cl)ccc23)cc1` (configuration not stated) as the compound, how does the “activity change, negative = inhibition” value read?
Answer: inactive: 0.312%

Question: Which “activity change, negative = inhibition” value does the source give for `COc1ccc2nc(N3CCN(C(=O)c4ccco4)CC3)sc2c1` here?
Answer: inactive: -1.24%

Question: Which “activity change, negative = inhibition” value does the source give for `COc1ccc(OC)c(CNC(=O)C2COc3ccccc3C2)c1` (configuration not stated) here?
Answer: inactive: -0.976%

Question: With `Cc1nc2ccccc2n1CCc1nc2c3ccccc3nc(SCC(=O)Nc3ccc(C(C)C)cc3)n2n1` as the compound, how does the “activity change, negative = inhibition” value read?
Answer: inactive: -5.8%

Question: With `O=C(Nc1nonc1-c1ccc(Br)cc1)c1ccco1` as the compound, how does the “activity change, negative = inhibition” value read?
Answer: inactive: -0.648%

Question: With `Cc1ccc(NC(=O)CSc2[nH]c(=O)ncc2C)cc1` as the compound, how does the “activity change, negative = inhibition” value read?
Answer: inactive: 3.28%

Question: With `COc1cccc(Cn2cc(S(=O)(=O)c3ccc(C)cc3)c(=O)c3cc4c(cc32)OCO4)c1` as the compound, how does the “activity change, negative = inhibition” value read?
Answer: inactive: 0.425%

Question: With `Cc1ccc(NC(=O)Cc2ccc(NC(=O)N3CCCCc4ccccc43)cc2)cc1` as the compound, how does the “activity change, negative = inhibition” value read?
Answer: inactive: -10.7%

Question: For `Clc1ccc(CSc2nc3ncccc3[nH]2)cc1`, which “activity change, negative = inhibition” value is on record?
Answer: inactive: -7.07%

Question: For `CCN1CCN(C(c2ccccc2)c2c(O)cc(C)n(CCOC)c2=O)CC1` (configuration not stated), which “activity change, negative = inhibition” value is on record?
Answer: inactive: 4.14%

Question: With `CSc1cccc(NC(=O)Cn2nnc(C(=O)NCCc3ccccc3)c2N)c1` as the compound, how does the “activity change, negative = inhibition” value read?
Answer: inactive: -17.6%

Question: With `CCCCC(=O)Nc1ccc(C(=O)OCc2cc(=O)n3nc(C4CC4)sc3n2)cc1` as the compound, how does the “activity change, negative = inhibition” value read?
Answer: inactive: 14.3%

Question: For `COC(=O)C1=C(c2ccccc2)c2ccccc2S(=O)(=O)N1CC(=O)Nc1ccccc1C(F)(F)F`, which “activity change, negative = inhibition” value is on record?
Answer: inactive: -15.2%

Question: With `COc1ccc(S(=O)(=O)Cc2ccc(C(=O)NC3CCCCC3)o2)cc1` as the compound, how does the “activity change, negative = inhibition” value read?
Answer: inactive: -1.46%

Question: For `Cn1c(=O)n(CCc2ccccc2)c(=O)c2c1nc1n2CCN1c1ccc(Cl)cc1`, which “activity change, negative = inhibition” value is on record?
Answer: inactive: 6.41%

Question: Which “activity change, negative = inhibition” value does the source give for `Cc1cccc(N2CCN(c3ccc(C(=O)O)cc3NC(=O)c3ccccc3F)CC2C)c1` (configuration not stated) here?
Answer: inactive: -8.69%

Question: Which “activity change, negative = inhibition” value does the source give for `CC(C(=O)Nc1ccccc1C(F)(F)F)n1nc(-c2ccccc2)c2c(c1=O)CCCC2` (configuration not stated) here?
Answer: inactive: -13.3%

Question: With `CC(=O)c1ccc(N2CCN(C(=O)Nc3cccc(F)c3)CC2)cc1` as the compound, how does the “activity change, negative = inhibition” value read?
Answer: inactive: -14.6%

Question: With `CCN(CC)c1ccc(C(=O)NCc2ccc3c(c2)CCN3C(C)=O)cc1` as the compound, how does the “activity change, negative = inhibition” value read?
Answer: inactive: -0.237%

Question: For `Cc1cc(C)c2c(-n3cccc3)c(C(=O)NCCc3ccccc3)sc2n1`, which “activity change, negative = inhibition” value is on record?
Answer: inactive: 0%

Question: For `CC(C)CC(=O)Nc1c(C(=O)N2CCN(c3ccccc3F)CC2)oc2ccccc12`, which “activity change, negative = inhibition” value is on record?
Answer: inactive: -0.325%

Question: With `COc1cccc(-c2nnc3n(Cc4ccccc4Cl)c(=O)c4ccccc4n23)c1O` as the compound, how does the “activity change, negative = inhibition” value read?
Answer: inactive: -2.32%

Question: With `O=C(NCc1ccc2c(c1)CCN2C(=O)c1ccncc1)c1ccc(Cl)cc1` as the compound, how does the “activity change, negative = inhibition” value read?
Answer: inactive: 2.27%

Question: For `CC(C)Oc1ccc(CNC(=O)CCCn2c(=O)c3cccn3c3cccnc32)cc1`, which “activity change, negative = inhibition” value is on record?
Answer: inactive: -23.4%

Question: With `Cc1ccc2c(=O)c(C(=O)c3ccccc3)cn(CC(=O)Nc3ccccc3)c2n1` as the compound, how does the “activity change, negative = inhibition” value read?
Answer: inactive: -0.462%

Question: With `COCCN(CCOC)C(=O)c1cc2c(=O)n3ccccc3nc2n1C` as the compound, how does the “activity change, negative = inhibition” value read?
Answer: inactive: -4.71%

Question: Which “activity change, negative = inhibition” value does the source give for `Cc1c(Cl)cccc1NC(=O)CN1C(=O)CCn2nc(-c3cccn3C)cc21` here?
Answer: inactive: 0.44%

Question: Which “activity change, negative = inhibition” value does the source give for `CCn1c(NCc2cccc(Cl)c2)nc2ccccc21` here?
Answer: inactive: -0.729%

Question: With `COc1cccc(C(=O)NC2=NC(c3ccc(N(C)C)cc3)CC(=O)N2)c1` (configuration not stated) as the compound, how does the “activity change, negative = inhibition” value read?
Answer: inactive: 0.508%

Question: Which “activity change, negative = inhibition” value does the source give for `O=C(CSc1nc(-c2ccccc2)cn1-c1ccccc1)Nc1ccccc1` here?
Answer: inactive: -2.57%

Question: For `COc1cc(-c2nc3ccc(C)cn3c2Nc2ccc(Cl)cc2)ccc1O`, which “activity change, negative = inhibition” value is on record?
Answer: inactive: 1.71%

Question: With `O=C(NCCCN1CCCCC1)c1cc(Sc2ccc(Cl)cc2)nc2ccccc12` as the compound, how does the “activity change, negative = inhibition” value read?
Answer: inactive: -0.329%

Question: For `Cc1cc(C)c(C(=O)Nc2ccccc2)c(SCC(=O)Nc2ccc(Br)cc2C)n1`, which “activity change, negative = inhibition” value is on record?
Answer: inactive: -0.618%

Question: Which “activity change, negative = inhibition” value does the source give for `Cc1ccc(Cn2c(C(=O)O)c(CNCCc3ccco3)c3ccc(C)cc32)cc1` here?
Answer: inactive: -1.22%

Question: For `O=S(=O)(c1ccc(Br)cc1)c1nnn2c1nc(NCc1cccs1)c1sccc12`, which “activity change, negative = inhibition” value is on record?
Answer: inactive: -1.54%

Question: Which “activity change, negative = inhibition” value does the source give for `CC(=O)c1ccc(N2CCN(C3C(=O)c4ccccc4N3C(C)=O)CC2)cc1` (configuration not stated) here?
Answer: inactive: 5.96%

Question: For `COc1ccc(-c2cc(C(=O)NCCc3ccccc3)c3cc(C(C)C)ccc3n2)cc1`, which “activity change, negative = inhibition” value is on record?
Answer: inactive: 12%

Question: Which “activity change, negative = inhibition” value does the source give for `COc1ccc(Cl)cc1NC(=O)c1nn(C)c2c1CS(=O)(=O)c1ccccc1-2` here?
Answer: inactive: 6.98%

Question: With `COc1ccccc1NC(=O)CCn1c(=O)oc2cc(Cl)ccc21` as the compound, how does the “activity change, negative = inhibition” value read?
Answer: inactive: 1.06%

Question: Which “activity change, negative = inhibition” value does the source give for `COCCCNC(=O)C1CCN(c2cc(C)nc3c(-c4ccc(OC)c(OC)c4)c(C)nn23)CC1` here?
Answer: inactive: -0.342%

Question: With `CCOc1cc(-c2nc(-c3ccc(-c4ccc(OC)cc4)nc3OC)no2)cc(OCC)c1OCC` as the compound, how does the “activity change, negative = inhibition” value read?
Answer: inactive: -0.0268%

Question: For `COc1ccc(-n2cc(C(=O)NCc3cccc(OC)c3)c3ccccc3c2=O)cc1`, which “activity change, negative = inhibition” value is on record?
Answer: inactive: -15.3%

Question: With `CC1=C(C(=O)Nc2ccccc2C)C(c2ccccn2)n2nc(SCc3ccccc3F)nc2N1` (configuration not stated) as the compound, how does the “activity change, negative = inhibition” value read?
Answer: inactive: -7.28%

Question: Which “activity change, negative = inhibition” value does the source give for `O=C(CSc1nc(=O)n(Cc2ccco2)c2c1CCC2)NCc1ccc(F)cc1` here?
Answer: inactive: 0.477%

Question: Which “activity change, negative = inhibition” value does the source give for `COc1ccc2nc(NC(=O)c3ccc(S(=O)(=O)N4CCCC(C)C4)cc3)sc2c1` (configuration not stated) here?
Answer: inactive: 2.24%

Question: For `Cc1nc2nc(NC(=O)c3ccc(Cl)cc3)[nH]n2c(=O)c1Cc1ccccc1`, which “activity change, negative = inhibition” value is on record?
Answer: inactive: -3.81%

Question: For `CCc1ccc(NC(=O)CSc2nc(=O)n(Cc3ccco3)c3c2CCC3)cc1`, which “activity change, negative = inhibition” value is on record?
Answer: inactive: -4.51%

Question: For `Cc1ccc(S(=O)(=O)c2nnn3c2nc(N2CCN(c4ccccc4F)CC2)c2ccccc23)cc1C`, which “activity change, negative = inhibition” value is on record?
Answer: inactive: 0.56%

Question: With `CC(NC(=O)Cn1c(-c2cccs2)cc2cc(F)ccc21)c1ccccc1` (configuration not stated) as the compound, how does the “activity change, negative = inhibition” value read?
Answer: inactive: -15.6%

Question: With `O=C(NC1CC(=O)N(c2ccc(Cl)cc2)C1)c1cccs1` (configuration not stated) as the compound, how does the “activity change, negative = inhibition” value read?
Answer: inactive: 0.132%

Question: With `COc1ccc(-c2cc(C(=O)Oc3ccc(C)c(C)c3)c3ccccc3n2)cc1` as the compound, how does the “activity change, negative = inhibition” value read?
Answer: inactive: 13.8%

Question: With `CCC(C)NC(=O)c1c(-c2ccccc2)c(-c2ccccc2)nn(C)c1=O` (configuration not stated) as the compound, how does the “activity change, negative = inhibition” value read?
Answer: inactive: -13.9%

Question: For `Cc1ccc(C(=O)NC2(C(F)(F)F)C(=O)Nc3c2c(=O)[nH]c(=O)n3CCc2ccccc2)cc1` (configuration not stated), which “activity change, negative = inhibition” value is on record?
Answer: inactive: -2.21%

Question: With `CCOC(=O)c1cc(-c2ccccc2)n(CCCC(=O)Nc2ccc(C)cc2C)c1C` as the compound, how does the “activity change, negative = inhibition” value read?
Answer: inactive: -10.9%

Question: With `Cc1cccc(-n2c3nc(=O)n(C)c(=O)c-3cc3ccc(Cl)cc32)c1C` as the compound, how does the “activity change, negative = inhibition” value read?
Answer: inactive: -0.651%
